Data taken from PubChem BioAssay AID624417 (National Center for Advancing Translational Sciences (NCATS), 2012).
Several values for one entry are separate records, joined by “and”; a condition that tells them apart may be missing. Equal values may be shown once. Hit rate of the full screen: of about 410,000 compounds, about 6,400 (1.6%) were called active. Inconclusive means that the source gave no clear call. Such entries were picked first, then a sample of the others. The call rests on the fitted dose curve; in most records, active means well fitted inhibition curve with a large enough effect; inconclusive means small, poorly fitted or top-dose-only effect; inactive means no such curve, though single readings can be large or run the other way. Potencies of inconclusive entries are doubtful fits and often do not repeat.

These compounds were tested against Glucagon-like peptide 1 receptor (Homo sapiens) (UniProt P43220) (assay: qHTS of GLP-1 Receptor Inverse Agonists (Inhibition Mode)). Settings: HEK293 GLP-1R CRE-luciferase, luminescence, 24 h, GLP-1R form is constitutively active; series mostly up to 38.3 µM.
How it was run: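 qHTS in 1536-well format: reporter HEK293 cells expressing constitutive GLP-1R activity in DMEM + 10% Nu serum, 24 hr with compounds at 37 deg C, luminescence read after 12 min with detection reagent.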
Further: nearly all actives have a fitted effect of over 55% in size.
Potency means the concentration at half of the fitted maximal effect; tags describe the fitted curve by direction and shape.

UniProt P43220, sequence (P43220 whole entry, looked up): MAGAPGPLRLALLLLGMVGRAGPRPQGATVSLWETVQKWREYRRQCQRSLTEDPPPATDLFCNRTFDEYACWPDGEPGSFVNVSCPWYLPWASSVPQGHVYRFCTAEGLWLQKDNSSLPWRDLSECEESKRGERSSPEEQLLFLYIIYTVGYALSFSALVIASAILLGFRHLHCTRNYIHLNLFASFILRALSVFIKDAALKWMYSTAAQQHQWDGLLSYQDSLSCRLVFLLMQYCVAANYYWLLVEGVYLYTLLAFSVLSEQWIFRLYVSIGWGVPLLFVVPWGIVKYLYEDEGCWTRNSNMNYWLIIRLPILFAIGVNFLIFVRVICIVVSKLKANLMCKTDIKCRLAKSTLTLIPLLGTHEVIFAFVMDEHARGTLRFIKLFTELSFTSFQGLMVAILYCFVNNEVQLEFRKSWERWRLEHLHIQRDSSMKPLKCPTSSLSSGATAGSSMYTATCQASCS

SMILES | Potency
Cc1cccc(NC2=C(NC(=O)c3ccccc3)C(=O)c3ccccc3C2=O)c1 | inconclusive: 3.98 µM [inhibitor, full curve]
COc1ccc(Cl)cc1NC(=O)CCCS(=O)(=O)c1nc(-c2ccc(OC)c(OC)c2)cc(C(F)(F)F)n1 | inconclusive: 28.2 µM [inhibitor, single point]
Cc1csc(SCC(=O)Nc2cc(S(=O)(=O)N3CCCC3)ccc2Cl)n1 | inconclusive: 28.2 µM [inhibitor, single point]
CN(C)S(=O)(=O)c1cccc(C(=O)Nc2cc(Cl)cc(Cl)c2)c1 | inconclusive: 14.1 µM [inhibitor, partial curve, poor fit]
CCn1cc2nc(SCc3cccc(F)c3)n(CCc3ccccc3)c(=O)c2n1 | inconclusive: 8.91 µM [inhibitor, partial curve, poor fit]
CCOc1ccc(CCN2C(=S)N([C@@H](Cc3ccc(O)cc3)CN3CCC[C@@H]3CN3C(=S)NC[C@@H]3CC(C)C)C[C@@H]2Cc2ccccc2)cc1 | inconclusive: 28.2 µM [inhibitor, single point]
Cc1ccc(-c2nnc(N3CCCCC3)c3ccccc23)cc1S(=O)(=O)N(C)C | inactive
CCN(CCCNC(=O)c1[nH]c(C)c(C(C)=O)c1C)c1cccc(C)c1 | inconclusive: 11.2 µM [inhibitor, partial curve, poor fit]
O=C(C[N+]1(CC#Cc2ccccc2)CCCCC1)c1ccc(Cl)cc1 | inconclusive: 12.6 µM [inhibitor, single point]
Cc1cc(C)nc(SCc2cc(=O)c(OC(=O)c3ccc(S(=O)(=O)N(C)C)cc3)co2)n1 | inactive
CC(C)(C)C(=O)Nc1nnc(SCc2cccc(F)c2)s1 | inconclusive: 10 µM [inhibitor, partial curve, poor fit]
CC(C)c1nn2c(=O)cc(COC(=O)c3ccccc3Cl)nc2s1 | inconclusive: 7.08 µM [inhibitor, partial curve]
CC1CCN(S(=O)(=O)c2cn(CC(=O)Nc3ccc(F)cc3)c(=O)c3ccccc23)CC1 | inconclusive: 3.16 µM [inhibitor, partial curve, poor fit]
CC(C)CCNC(=O)c1ccc2c(c1)N(C)C(=O)c1ccccc1S2 | inconclusive: 31.6 µM [inhibitor, single point] and inconclusive: 11.2 µM [inhibitor, single point]
Cc1ccc(CN2C(=O)C(F)(F)Oc3ccc(C)cc32)cc1 | inconclusive: 17.8 µM [inhibitor, single point]
